Assay results taken from the supplement of paper PMC7826260.
This is one part of the list. Each Rep nickase domain was tested in vitro on the same pool of single strands (3 µM enzyme, 1 h, 37 °C); shown is the middle of each 90-letter strand. A value is the log2 ratio of uncut reads to the pool without enzyme; the lower, the more was cut; hits are not called. Reads are scaled to the total; values above 0 arise when much of the pool is cut.

Tests used:
Test in all cases: uncleaved DNA left, log2 of reads against the no-enzyme library (log2 ratio); higher = less cleavage (more negative = more Rep cleavage of the k-mer); sequences stand for … in CTCGTCCG…ACCGGAGA
[1] = test system: T1, Rep nickase domain of Muscovy duck circovirus
T1 sequence (residues 1-111, tag not shown): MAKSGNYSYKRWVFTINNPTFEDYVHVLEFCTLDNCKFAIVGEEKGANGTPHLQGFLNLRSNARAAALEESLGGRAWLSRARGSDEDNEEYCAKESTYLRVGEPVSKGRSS
Description: (§1)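 A pool of 90-nt single-stranded DNAs with seven random bases just before the constant AC of the nick site (name = the seven bases) was cut by 3 µM recombinant His6-SUMO-tagged Rep nickase domain (300 nM DNA, 50 mM HEPES pH 8.0, 50 mM NaCl, 1 mM MnCl2, 1 h, 37 °C, three replicates). Uncut DNA was amplified and sequenced.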

[2] = test system: T2, Rep nickase domain of banana bunchy top virus
T2 sequence (residues 1-94, tag not shown): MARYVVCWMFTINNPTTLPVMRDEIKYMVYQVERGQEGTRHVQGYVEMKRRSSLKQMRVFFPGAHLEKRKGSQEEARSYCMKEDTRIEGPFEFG
Description: as §1

[3] = test system: T3, Rep nickase domain of cabbage leaf curl virus
T3 sequence (residues 1-116, tag not shown): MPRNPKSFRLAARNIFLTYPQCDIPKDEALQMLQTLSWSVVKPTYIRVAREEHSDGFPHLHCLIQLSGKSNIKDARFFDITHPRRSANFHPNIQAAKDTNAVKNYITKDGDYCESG
Description: as §1

[4] = test system: T4, Rep nickase domain of chickpea chlorotic dwarf virus
T4 sequence (residues 1-124, tag not shown): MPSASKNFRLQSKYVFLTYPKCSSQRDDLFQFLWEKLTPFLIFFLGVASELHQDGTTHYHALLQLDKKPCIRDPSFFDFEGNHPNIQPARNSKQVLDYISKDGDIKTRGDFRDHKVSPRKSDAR
Description: as §1

[5] = test system: T5, Rep nickase domain of faba bean necrotic yellows virus
T5 sequence (residues 1-98, tag not shown): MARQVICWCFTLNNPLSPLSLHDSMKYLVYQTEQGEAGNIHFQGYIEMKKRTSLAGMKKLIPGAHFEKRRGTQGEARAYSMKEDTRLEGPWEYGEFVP
Description: as §1

[6] = test system: T6, Rep nickase domain of maize striate mosaic virus
T6 sequence (residues 1-117, tag not shown): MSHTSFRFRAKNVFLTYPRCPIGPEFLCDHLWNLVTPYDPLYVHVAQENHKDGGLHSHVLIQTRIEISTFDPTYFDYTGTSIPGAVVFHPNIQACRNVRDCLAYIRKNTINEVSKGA
Description: as §1

[7] = test system: T7, Rep nickase domain of porcine circovirus 2
T7 sequence (residues 2-116, tag not shown): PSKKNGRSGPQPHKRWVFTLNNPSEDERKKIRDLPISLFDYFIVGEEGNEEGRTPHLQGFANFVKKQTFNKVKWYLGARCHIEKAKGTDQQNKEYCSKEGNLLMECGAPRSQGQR
Description: as §1

[8] = test system: T8, Rep nickase domain of tomato golden mosaic virus
T8 sequence (residues 1-124, tag not shown): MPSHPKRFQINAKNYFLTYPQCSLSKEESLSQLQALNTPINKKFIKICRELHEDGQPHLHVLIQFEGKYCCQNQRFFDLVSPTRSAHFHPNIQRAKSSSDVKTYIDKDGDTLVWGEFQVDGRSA
Description: as §1

[9] = test system: T9, Rep nickase domain of tomato yellow leaf curl virus
T9 sequence (residues 1-136, tag not shown): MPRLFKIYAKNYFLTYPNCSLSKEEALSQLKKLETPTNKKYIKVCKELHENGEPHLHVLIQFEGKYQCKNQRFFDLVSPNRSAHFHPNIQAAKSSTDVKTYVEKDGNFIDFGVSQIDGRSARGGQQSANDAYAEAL
Description: as §1

[10] = test system: T10, Rep nickase domain of wheat dwarf virus
T10 sequence (residues 1-137, tag not shown): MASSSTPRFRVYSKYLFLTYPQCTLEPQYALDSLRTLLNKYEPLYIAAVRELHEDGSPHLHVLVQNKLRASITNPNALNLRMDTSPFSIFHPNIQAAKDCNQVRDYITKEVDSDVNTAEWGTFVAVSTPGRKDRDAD
Description: as §1

Row | Sequence | uncleaved DNA left (log2) [1] | uncleaved DNA left (log2) [2] | uncleaved DNA left (log2) [3] | uncleaved DNA left (log2) [4] | uncleaved DNA left (log2) [5] | uncleaved DNA left (log2) [6] | uncleaved DNA left (log2) [7] | uncleaved DNA left (log2) [8] | uncleaved DNA left (log2) [9] | uncleaved DNA left (log2) [10]
1 | AATCGGC | 0.0898 | 0.125 | -0.0869 | -0.221 | 0.0341 | -0.691 | 0.215 | 0.071 | 0.00361 | 0.139
2 | GCGTTCT | -0.396 | -0.0156 | 0.0584 | -0.631 | -0.134 | 0.0378 | -2.41 | -0.169 | -0.0107 | -0.0612
3 | CCCGCTA | -0.122 | -0.122 | -0.232 | -0.931 | -0.0781 | -0.701 | 0.0849 | 0.0335 | -0.124 | -0.125
4 | CAACACC | -0.119 | -0.134 | -0.271 | -1.49 | -0.0734 | -0.677 | -0.18 | -0.0722 | -0.153 | -0.0781
5 | CTGTCCT | -0.342 | -0.0709 | -0.00673 | -1.57 | -0.0934 | 0.0964 | -1.53 | -0.0444 | -0.149 | -0.0476
6 | TGCAAAC | -0.0654 | -0.0426 | 0.241 | 0.429 | 0.082 | 0.609 | 0.0431 | 0.00756 | -0.0363 | 0.0475
7 | AACACGT | 0.000223 | -0.113 | -0.337 | -1.24 | -0.0865 | -0.909 | -0.0787 | -0.143 | -0.0791 | -0.223
8 | CCGCAGG | -0.0188 | -0.116 | 0.125 | 0.366 | -0.00191 | -0.0665 | 0.063 | -0.0527 | -0.0869 | -0.18
9 | CAAATGG | 0.0906 | -0.0513 | -0.24 | -0.158 | 0.0806 | -0.936 | 0.202 | 0.0675 | 0.0419 | 0.0848
10 | TCTGCAG | -0.00516 | -0.132 | -0.793 | -0.691 | -0.236 | -1.24 | 0.16 | -0.21 | -0.22 | -0.212
11 | TGTACCC | -0.0462 | 0.032 | 0.289 | 0.238 | 0.0521 | 1 | -0.361 | -0.0348 | 0.147 | 0.202
12 | GCTATCG | 0.133 | -0.00654 | -0.675 | -0.251 | 0.0804 | -0.939 | 0.192 | -0.0856 | 0.0296 | -0.0863
13 | TCCTGTT | -2.91 | -0.353 | -0.869 | -2.14 | -0.0461 | -0.683 | -3.28 | -0.231 | -0.0712 | -0.665
14 | GATAGAC | 0.045 | 0.143 | 0.621 | 1.35 | 0.0191 | 1.52 | 0.22 | 0.033 | 0.0911 | 0.146
15 | ATGTAGT | -1.34 | -0.468 | -0.399 | -1.04 | -0.54 | -1.03 | -3.48 | -0.0151 | -0.102 | -0.128
16 | CAGTGCG | -0.0452 | -0.13 | -0.0423 | 1.36 | 0.165 | 1.35 | 0.0607 | -0.162 | 0.0674 | -0.2
17 | CAGCCCG | -0.0454 | -0.0572 | -0.764 | -0.361 | -0.112 | -0.961 | 0.0319 | -0.15 | -0.0865 | -0.198
18 | CTAATAC | -0.731 | -0.03 | 0.0727 | -1.14 | 0.0401 | -0.825 | -2.37 | -0.00643 | -0.145 | -0.0226
19 | ACTACTC | 0.000609 | -0.0174 | -0.0245 | -0.462 | -0.0417 | -0.487 | 0.0213 | -0.0252 | -0.15 | -0.0445
20 | GTTACGT | 0.0461 | 0.132 | 0.342 | 0.713 | 0.0566 | 1.11 | 0.0863 | 0.122 | 0.09 | 0.169
21 | GAACTAC | 0.0586 | 0.113 | 0.297 | -0.977 | 0.177 | 1.06 | 0.202 | 0.0997 | 0.11 | 0.153
22 | CACTCGG | 0.0839 | 0.156 | 0.479 | 1.32 | 0.0939 | 1.3 | 0.243 | 0.223 | -0.028 | 0.103
23 | GTTCTAC | -0.0235 | 0.0741 | 0.41 | 0.724 | 0.0628 | 1.78 | 0.0568 | 0.125 | 0.0917 | 0.0641
24 | AGTAAGG | 0.144 | 0.0511 | 0.224 | 0.968 | 0.134 | 0.801 | 0.267 | 0.0866 | -0.029 | 0.101
25 | ACTAGAT | -0.176 | -0.0379 | -0.172 | 0.0156 | -0.0393 | -0.305 | -0.305 | -0.0408 | -0.254 | -0.0318
26 | TCCGTTC | -0.078 | -0.244 | 0.0377 | -0.234 | -0.056 | 0.0973 | -0.0465 | -0.165 | -0.196 | -0.182
27 | GACAAGA | 0.0531 | -0.0426 | 0.233 | 0.558 | -0.00182 | -0.0232 | 0.149 | -0.00855 | 0.0946 | 0.121
28 | TACTTAG | 0.0748 | -0.0194 | -0.777 | -0.93 | -0.0874 | -1.32 | 0.0473 | -0.0624 | -0.0175 | -0.121
29 | TTCCAGG | -0.109 | -0.124 | 0.286 | 1.25 | -0.262 | 1.69 | -0.115 | -0.0585 | -0.18 | -0.0312
30 | AAACTGA | 0.0709 | 0.0198 | 0.09 | 0.518 | 0.111 | 1.14 | 0.237 | 0.0878 | -0.0634 | 0.0227
